Assay results reported in FireProtDB (doi:10.1021/bi00157a021).

Details: Gallus gallus, 35 °C, GdnHCl, CD, Sodium acetate 0.1 M, reversible: Unknown

## Lysozyme C wild type (no sequence given)
pH 3.5
  denaturant m value: 2.71 kcal/mol/M
  denaturant midpoint (higher = more stable): 2.71 M
  unfolding free energy: 7.34 kcal/mol
pH 4.5
  denaturant m value: 2.71 kcal/mol/M
  denaturant midpoint (higher = more stable): 3.69 M
  unfolding free energy: 9.99 kcal/mol
pH 5
  denaturant m value: 2.71 kcal/mol/M
  denaturant midpoint (higher = more stable): 3.63 M
  unfolding free energy: 9.84 kcal/mol
pH 5.5
  denaturant m value: 2.71 kcal/mol/M
  denaturant midpoint (higher = more stable): 3.61 M
  unfolding free energy: 9.78 kcal/mol
